Tests used:
[1] = test system: cells; test: Cell Titer Blue % cell viable (24 hrs); type: cell-based; settings: Conc 30 μM
Protocol: The viability of cells upon treatment was assessed by CellTiter-Blue® reagent following the manufacturer's protocol in RKO, UM10B, UM1, MCR5, and UMCC92 cells. Briefly, 10,000 cells were plated in 96-well plate in quadruplets. One day after seeding, cells were treated with a range of concentrations (0.1 to 30 micromolar). […] Only the viable cells convert the redox dye (reszurin) into a fluorescent product (resofurin). The emission of fluorescence (excitation 560 nm) was measured at […]. The IC50 value was calculated as the mean concentration of compounds required to inhibit cell proliferation as measured by the fluorescence at […] by 50 percent compared to the vehicle-treated controls.

[2] = test system: UM10B cells; test: Clonogenic IC50, UM10B; type: cell-based

Q: With `CC1(C)N=C(c2ccc(F)cc2)C(=O)N1CC(=O)Nc1ccc(F)c(Cl)c1` [Compound 14] as the compound, how does the “% Cell viable (24 hrs)” value [1] read?
A: 99.7%

Q: Which results are given for `COc1ccc(NC(=O)CN2C(=O)C(c3ccc(F)cc3)=NC2(C)C)cc1Cl` [Compound 17]?
A: IC50 [2]: 44 µM; % Cell viable (24 hrs) [1]: 109%

Q: For `COc1ccc(C2=NC3(CCCCC3)N=C2SCC(=O)Nc2ccc(OC)c(Cl)c2)cc1` [Compound 30], which IC50 [2] is on record?
A: 6.5 µM

Q: And the viability at 30 µM ([1]; 24 h)?
A: 112%
